Measurements: the supplement of paper PMC5655136
Read counts after selection give these values, which scatter widely.

tested on: NB7; assay: fold depletion of shRNA, plasmid library share / infected cells without Dox share (9 days) (ratio); higher = more depleted after infection (more toxic, leaky expression from a Tet-inducible vector; NB7 is a neuroblastoma line without caspase-8); details: shRNA pool: CD95L ORF + CD95L 3'UTR + Venus libraries
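Note: shRNA barcodes quantified by deep sequencing of PCR amplicons from cellular DNA, counts expressed as percent of each subpool, ratio averaged over two biological duplicates.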

Sequence | fold depletion of shRNA
GTGTATTTCCAGTGCAATTGT | 2.98
GTGTCCGGCGAGGGCGAGGGC | 0.709
GTGTGTATGACTAAAGAGAGA | 2.29
GTGTGTGTATGACTAAAGAGA | 1.5
GTGTGTGTGTATGACTAAAGA | 0.698
GTGTGTGTGTGTATGACTAAA | 1.31
GTGTGTGTGTGTGTGTATGAC | 11.4
GTGTGTGTGTGTGTGTGTATG | 6.73
GTGTGTGTGTGTGTGTGTGTG | 2.88
GTGTTCAATCTTACCAGTGCT | 0.803
GTGTTCTACACTCATCTTAGT | 2.45
GTTACAGGCACCGAGAATGTT | 1.24
GTTCAATCTTACCAGTGCTGA | 3.71
GTTCACCGGGGTGGTGCCCAT | 1.65
GTTCAGCGTGTCCGGCGAGGG | 0.516
GTTCGAGGGCGACACCCTGGT | 0.761
GTTCTACACTCATCTTAGTGC | 2.39
GTTCTGGTTGCCTTGGTAGGA | 0.854
GTTCTTCCCTGTCCAACCTCT | 74.1
GTTGCATTTGGTCAAGATTTT | 5.73
GTTGCCTTGGTAGGATTGGGC | 2.37

Sequence | fold depletion of shRNA
GTTGTATTCAGTGAGGGTCTT | 0.625
GTTGTGACCTGAGGATTTAAG | 9.44
GTTTATGAGCCAGACAAATGG | 1.98
GTTTCAGCTCTTCCACCTACA | 3.21
GTTTTCCTATAATATAATAAA | 1.02
GTTTTGGGGACTCATTTCATT | 30.9
GTTTTTCGGCTTATATAAGCT | 3.36
TAAAAAGTATATGTTAGGATA | 0.603
TAAACGGCCACAAGTTCAGCG | 1.16
TAAAGAGAGAATGTAGATATT | 0.531
TAAAGAGGCTGAAAGAGGCCA | 0.279
TAAATATTTATGTAGATGTGC | 1.15
TAAATGCATATCCTGAGCCAT | 1.61
TAACACAGCATGTGTATTTCC | 1.38
TAACAGATAAGCAAGAGAGAT | 1.66
TAACAGGCAAGTCCAACTCAA | 0.36
TAACTCACCTCTCAAGGTGGG | 0.693
TAAGAAGACATGAACCAAGTG | 0.395
TAAGAAGGGTGGCCTTGTGAT | 13.9
TAAGCAAGAGAGATGTTTTGG | 0.447
TAAGCTAAAGAGGCTGAAAGA | 2.55

Sequence | fold depletion of shRNA
TAAGGGATGGAAAAGGAAGAC | 0.271
TAATAAAAAGTATATGTTAGG | 0.51
TAATAAATATTTATGTAGATG | 0.9
TAATAAGCTAAAGAGGCTGAA | 11.1
TAATAGTGCTTAAAAATCATT | 1.41
TAATATAATAAATATTTATGT | 1.3
TAATGATGTTTTCCTATAATA | 0.567
TACAACAGCCACAACGTCTAT | 4.85
TACAAGACCCGCGCCGAGGTG | 1.46
TACACTCATCTTAGTGCCTGA | 3.44
TACAGGCACCGAGAATGTTGT | 0.811
TACATATTAGGAAAATATGGG | 0.853
TACATGAGGAACTCTAAGTAT | 0.586
TACATGGTTGTGACCTGAGGA | 8.87
TACCAGCAGAACACCCCCATC | 1.53
TACCAGCCAGATGCACACAGC | 0.723
TACCAGGTGTTCTACACTCAT | 2.49
TACCAGTCCGCCCTGAGCAAA | 1.83
TACCAGTGCTGATCATTTATA | 0.612
TACCCATATCCCCAGATCTAC | 2.46

same assay, conditions: shRNA pool: CD95 ORF + CD95 3'UTR + Venus libraries

Sequence | fold depletion of shRNA
GTGTCAATGAAGCCAAAATAG | 0.904
GTGTCATATTATACAATATTT | 1.3
GTGTCCGGCGAGGGCGAGGGC | 0.782
GTGTGATGAAGGACATGGCTT | 1.2
GTGTTAATGCCCAAGTGACTG | 0.565
GTGTTTGAAAAGATTCTTAAT | 1.11
GTGTTTGGAATTATAAAATAT | 0.98
GTTAAAGGCTTTGTTCGAAAG | 3.95
GTTACTACAGTTGAGACTCAG | 1.51
GTTACTGAACAGGCAGGCCAC | 0.628
GTTAGTACAAATGTCTATCCA | 1.45
GTTATAAACTGAAGCAGATAC | 1.48
GTTCAACTGCTTCGTAATTGG | 0.558
GTTCAATAATGTCCCATGTAA | 1.04
GTTCACCGGGGTGGTGCCCAT | 1.22
GTTCAGCGTGTCCGGCGAGGG | 0.773
GTTCGAAAGAATGGTGTCAAT | 3.06
GTTCGAGGGCGACACCCTGGT | 1.45
GTTCTCATGAATCTCCAACTT | 1.42
GTTCTGAGTATATGCAATTAG | 1.23
GTTCTTACGTCTGTTGCTAGA | 4.4
GTTGACTTGAGTAAATATATC | 0.975
GTTGAGACTCAGAACTTGGAA | 4.46
GTTGCTAGATTATCGTCCAAA | 1.33
GTTGGGAAAACAAACTTCATC | 2.41

Sequence | fold depletion of shRNA
GTTTAAAATCTAGTTGGGAAA | 1.48
GTTTAAATATCTTTGAAAGTT | 0.699
GTTTATAACTCTGAGAAGATC | 2.03
GTTTATTGGTGTCATATTATA | 1.15
GTTTCTAAGATTTAAGATTCT | 0.808
GTTTGAAAAGATTCTTAATAG | 0.791
GTTTGACTATTATATATGTGT | 0.9
GTTTGCAATCAAAGATGATAA | 1.86
GTTTGGAATTATAAAATATAG | 0.818
GTTTGGAGATACTAACTGCTC | 4.44
GTTTGGGTGAAGAGAAAGGAA | 0.817
GTTTGTATTAAATGTGAATTT | 0.973
GTTTTTTACTGGGTACATTTT | 2.28
TAAAACCTGCTACAAATGGCA | 11.5
TAAAAGTACGTAATTAAATAA | 1.65
TAAAATAGATTCTTATTTTTC | 0.845
TAAAATATAGGTAAAAGTACG | 1.99
TAAAATCATCATCTGGATTTA | 1.81
TAAAATCTAGTTGGGAAAACA | 1.54
TAAACCAAACTTTTTTTGTAA | 1.45
TAAACGGCCACAAGTTCAGCG | 1.2
TAAACTGCACCCGGACCCAGA | 1.93
TAAACTGTGAAGATAGTTATA | 0.72
TAAACTTTGTTTATAACTCTG | 0.93
TAAAGAACTTCCATTTATGGA | 1.38

Sequence | fold depletion of shRNA
TAAAGGCTTTGTTCGAAAGAA | 1.02
TAAAGTATATGTATTTGAGTG | 0.988
TAAATAAGGCTCTACCTCAAA | 0.467
TAAATACTGCTTGGTTTTTTA | 1.42
TAAATATATCACCACTATTGC | 0.983
TAAATATCTTTGAAAGTTTGT | 0.97
TAAATGTAAACTGTGAAGATA | 0.765
TAAATGTGAATTTTAAGAAAT | 1.24
TAAATTACCTCTGATAATTCT | 1.44
TAAATTATAATGTTTGACTAT | 1.39
TAAATTTATCTGATGTTGACT | 0.985
TAACATATGATTCTGTAGTAT | 1.74
TAACCCCACTCTATGAATCAA | 1.41
TAACTCTACTGTATGTGAACA | 1.29
TAACTCTGAGAAGATCATATT | 1.69
TAACTGCTCTCAGAGAAAGTA | 4.74
TAAGAAATAATATTTATATTT | 1.06
TAAGATTATGCTCTGGCATCT | 1.1
TAAGATTCTCCTTACTACTAT | 0.821
TAAGATTTAAGATTCTCCTTA | 2.02
TAAGCCCTGTCCTCCAGGTGA | 1.05
TAAGTACCCAAATAGGAGTGT | 3.04
TAAGTCAAGTTAAAGGCTTTG | 1.09
TAATAGCTGGCTGTAAATACT | 3.07
TAATATCTCATGATTCTGCCT | 3.56

Sequence | fold depletion of shRNA
TAATATTTATATTTCTGTAAA | 1.08
TAATCAGTGTATGTTAGTACA | 1.56
TAATGCACCCCCAAACATGGA | 1.12
TAATGCCCAAGTGACTGACAT | 1.27
TAATGTCCCATGTAAAACCTG | 6.35
TAATGTTTGACTATTATATAT | 0.729
TAATTAAATAATGTTTTTGGT | 1.8
TAATTCTAGAGATTTTACCAT | 2.02
TAATTGTTTGGGTGAAGAGAA | 5.48
TACAAATGGCAGCTTATACAT | 0.788
TACAAATGTCTATCCACAGGC | 1.03
TACAACAGCCACAACGTCTAT | 1.88
TACAACTACAACAGCCACAAC | 5.4
TACAAGACCCGCGCCGAGGTG | 1.7
TACAATATTTCAATTGTGAAT | 0.717
TACACAGACAAAGCCCATTTT | 0.567
TACAGTTGAGACTCAGAACTT | 1.62
TACATAGCAATGGTAAAATCA | 0.771
TACATTTTATCATTTATTAGC | 0.718
TACCAAGTGCAGATGTAAACC | 1.08
TACCAGCAGAACACCCCCATC | 1.05
TACCAGTCCGCCCTGAGCAAA | 0.921
TACCATATTTCTAAACTTTGT | 1.07
TACCCAAATAGGAGTGTATGC | 1.29
TACCCCCAAGTTTCTAAGATT | 1.99
